One assay concerns HSkMC. As to the kind of experiment: cytotoxicity call (relative viability < 0.9). The note with it: 10 µM.
A further assay deals with HepG2. The assay can be described thus: cytotoxicity call (relative viability < 0.9). The following applies: 10 µM.
In another assay the test system is S. aureus RN4220. The assay can be described thus: growth inhibition call (relative growth <= 0.2). The note with it: 50 µM.

Some of the results follow.

Consider `COc1ccccc1CNC(=O)C[C@@H]1C[C@H]2c3cc(NC(=O)C4CCOCC4)ccc3O[C@H]2[C@H](CO)O1`, for which the cytotoxicity call in the assay with HSkMC and with HepG2 was “inactive” throughout. Further, the growth inhibition call with S. aureus RN4220 was “inactive”.

On to `CO[C@@H]1CN(C)C(=O)c2cc(NC(=O)CC(F)(F)F)ccc2OC[C@@H](C)N(S(=O)(=O)c2cn(C)cn2)C[C@H]1C`, for which the cytotoxicity call in the assay with HSkMC and in the assay with HepG2 was “inactive” in each case. Also, the growth inhibition call in the assay with S. aureus RN4220 is “inactive”.

For `C[C@@H]1CN([C@H](C)CO)C(=O)c2cc(NC(=O)CCC(F)(F)F)ccc2O[C@@H](C)CCCCO[C@H]1CN(C)C(=O)c1ccccc1`, the cytotoxicity call in the assay with HSkMC and with HepG2 was “inactive” throughout. For the same molecule, the growth inhibition call in the assay with S. aureus RN4220 is “inactive”.

`C=C1C(=O)C(O)[C@H]2O[C@H]2C1=O` (some centres undefined): the cytotoxicity call with HSkMC and with HepG2 was “inactive” each time. The growth inhibition call with S. aureus RN4220 is “inactive”.

Turning to `CN[C@H](CC(=O)O)C(=O)O`, the cytotoxicity call in the assay on HSkMC and in the assay with HepG2 was “inactive” throughout. The growth inhibition call with S. aureus RN4220 is “inactive”.

Turning to `CC(C)CC#Cc1ccc2c(c1)O[C@H](CN(C)C(=O)c1cnccn1)[C@@H](C)CN([C@@H](C)CO)S2(=O)=O`, the cytotoxicity call in the assay with HSkMC and in the assay with HepG2 was “inactive” in each case. Moreover, in the assay with S. aureus RN4220, the growth inhibition call is “inactive”.

Consider `O=C(C[C@H]1CC[C@@H]2NC[C@H](O)COC[C@H]2O1)NCCN1CCCC1`, for which the cytotoxicity call in the assay on HSkMC and in the assay with HepG2 was “inactive” each time. Also, the growth inhibition call with S. aureus RN4220 was “inactive”.

In the case of `COC(=O)C=CC(=O)OC`, the cytotoxicity call with HSkMC is “inactive”. The cytotoxicity call with HepG2 is “active”. Further, the growth inhibition call with S. aureus RN4220 is “inactive”.

For the molecule `CCS(=O)(=O)N1C[C@]2(C1)CN([C@H](CO)c1c2c2ccc(cc2n1C)OC)C(=O)Nc1cccc(c1)F`, the cytotoxicity call with HSkMC and with HepG2 was “inactive” each time. The growth inhibition call in the assay on S. aureus RN4220 was “inactive”.

`O=C(O)c1cnc(N2CCCC2)nc1`: the cytotoxicity call in the assay with HSkMC and in the assay on HepG2 was “inactive” each time. In the assay on S. aureus RN4220, the growth inhibition call is “inactive”.

On to `Cc1noc(C)c1NC(=O)N(C)C[C@H]1OCCCC[C@@H](C)Oc2ccc(NC(=O)Cc3ccccc3)cc2C(=O)N([C@H](C)CO)C[C@H]1C`, for which the cytotoxicity call in the assay with HSkMC and with HepG2 was “inactive” throughout. For the same molecule, the growth inhibition call with S. aureus RN4220 was “inactive”.

As for `CC(=O)N1CCS(=O)(=O)[C@@H]2CCN(S(=O)(=O)c3ccccc3C)CC[C@@H]21`, the cytotoxicity call in the assay with HSkMC and with HepG2 was “inactive” in each case. Also, the growth inhibition call in the assay on S. aureus RN4220 was “inactive”.

Regarding `Cc1noc(C)c1NC(=O)Nc1cccc2c1O[C@H](CN(C)Cc1ccc(C(F)(F)F)cc1)[C@@H](C)CN([C@H](C)CO)C2=O`, the cytotoxicity call with HSkMC and in the assay with HepG2 was “inactive” in each case. Further, in the assay with S. aureus RN4220, the growth inhibition call was “inactive”.

Take `CNC[C@@H]1Oc2ccc(NC(=O)Cn3cnnn3)cc2C(=O)N([C@H](C)CO)C[C@@H]1C`: the cytotoxicity call with HSkMC and with HepG2 was “inactive” throughout. Moreover, the growth inhibition call in the assay on S. aureus RN4220 is “inactive”.

For the molecule `COc1ccc([Si](C)(C)[C@H]2[C@H](CC(=O)N3Cc4ccccc4C[C@H]3CO)O[C@@]3(C(=O)N(Cc4cccc(N5C(=O)c6cccc7cccc5c67)c4)c4ccccc43)[C@@H]2C)cc1`, in the assay on HSkMC, the cytotoxicity call was “inactive”. Besides, in the assay on HepG2, the cytotoxicity call was “active”. In the assay on S. aureus RN4220, the growth inhibition call was “inactive”.

As for `C[C@@H]1CN([C@@H](C)CO)C(=O)c2cc(NS(=O)(=O)c3ccc(F)cc3)ccc2O[C@@H](C)CCCCO[C@@H]1CN(C)Cc1ccc(C(=O)O)cc1`, the cytotoxicity call in the assay with HSkMC and with HepG2 was “inactive” in each case. Besides, in the assay on S. aureus RN4220, the growth inhibition call is “inactive”.

For the molecule `C[C@@H]1CN([C@H](C)CO)C(=O)c2cc(NC(=O)Nc3ccc4c(c3)OCO4)ccc2O[C@@H](C)CCCCO[C@H]1CN(C)Cc1ccncc1`, the cytotoxicity call with HSkMC and in the assay with HepG2 was “inactive” in each case. Also, the growth inhibition call with S. aureus RN4220 is “inactive”.

Take `C[C@@H]1CN([C@@H](C)CO)S(=O)(=O)c2ccc(-c3cncnc3)cc2O[C@@H]1CN(C)C(=O)Cc1ccccc1`: the cytotoxicity call with HSkMC and in the assay on HepG2 was “inactive” each time. Further, the growth inhibition call in the assay on S. aureus RN4220 is “inactive”.

For the molecule `C[C@@H]1CN([C@H](C)CO)C(=O)Cc2cc(NS(C)(=O)=O)ccc2O[C@H]1CN(C)Cc1ccc(C(F)(F)F)cc1`, the cytotoxicity call with HSkMC and in the assay on HepG2 was “inactive” throughout. The growth inhibition call with S. aureus RN4220 is “inactive”.

In the case of `CC(C)CC#Cc1ccc2c(c1)O[C@H](CN(C)S(=O)(=O)c1ccc(F)cc1)[C@H](C)CN([C@H](C)CO)S2(=O)=O`, the cytotoxicity call in the assay on HSkMC and in the assay on HepG2 was “inactive” in each case. Also, the growth inhibition call with S. aureus RN4220 was “inactive”.

For the molecule `CCN1C(=O)CS/C1=N\N1CCOCC1`, the cytotoxicity call in the assay with HSkMC and in the assay on HepG2 was “inactive” each time. Moreover, the growth inhibition call in the assay on S. aureus RN4220 is “inactive”.

For the molecule `CN1C(=O)c2cc(NC(=O)c3cccc(C#N)c3)ccc2OC[C@H]2O[C@@H](CC(=O)NCCN3CCCC3)CC[C@@H]21`, the cytotoxicity call in the assay with HSkMC and with HepG2 was “inactive” each time. In addition, in the assay with S. aureus RN4220, the growth inhibition call is “inactive”.

`CCCCC(=O)OCC(=O)[C@]1(O)Cc2c(O)c3c(c(O)c2[C@@H](O[C@H]2C[C@H](NC(=O)C(F)(F)F)[C@H](O)[C@H](C)O2)C1)C(=O)c1c(OC)cccc1C3=O`: the cytotoxicity call with HSkMC and with HepG2 was “active” each time. Moreover, the growth inhibition call with S. aureus RN4220 is “inactive”.

For the molecule `C[C@H](CO)N1C[C@H](C)[C@H](CN(C)Cc2ccc(Oc3ccccc3)cc2)Oc2ccc(NC(=O)CCCCCC(=O)Nc3ccccc3N)cc2CC1=O`, the cytotoxicity call in the assay on HSkMC and with HepG2 was “inactive” each time. Besides, the growth inhibition call with S. aureus RN4220 was “inactive”.

As for `CO[C@@H](CN(C)S(=O)(=O)c1ccc(F)cc1)[C@H](C)CN([C@H](C)CO)S(=O)(=O)c1cccc(Cl)c1`, the cytotoxicity call in the assay with HSkMC and in the assay with HepG2 was “inactive” throughout. Besides, the growth inhibition call in the assay with S. aureus RN4220 was “inactive”.

For the molecule `COc1cccc(-c2ccc3c(c2)O[C@H](CN(C)C(=O)C2CCOCC2)[C@@H](C)CN([C@@H](C)CO)S3(=O)=O)c1`, the cytotoxicity call in the assay on HSkMC and in the assay with HepG2 was “inactive” each time. In addition, the growth inhibition call with S. aureus RN4220 is “inactive”.

In the case of `Cc1noc(C)c1S(=O)(=O)Nc1ccc2c(c1)C(=O)N([C@@H](C)CO)C[C@H](C)[C@@H](CN(C)CC1CCCCC1)OCCCC[C@@H](C)O2`, the cytotoxicity call with HSkMC and with HepG2 was “inactive” throughout. Moreover, the growth inhibition call with S. aureus RN4220 is “inactive”.

Consider `COc1ccc(NC(=O)Nc2ccc3c(c2)C(=O)N([C@@H](C)CO)C[C@@H](C)[C@H](CN(C)Cc2ccc4c(c2)OCO4)OCCCC[C@@H](C)O3)cc1`, for which the cytotoxicity call in the assay on HSkMC (human skeletal muscle cells) and in the assay on HepG2 was “inactive” in each case. Moreover, the growth inhibition call in the assay with S. aureus RN4220 was “inactive”.

Source of the values: the antibiotic and cytotoxicity screens of Wong et al. (2023).
